Test results from PubChem BioAssay AID1745853 (National Center for Advancing Translational Sciences (NCATS), 2022).
The other results are listed elsewhere or left out. These are further read-outs of the screen, such as a control signal, another cell line or another target. No call is given for them.

Legend:
Experiment in all cases: Primary Screen for Target Class Profiling of Small Molecule Inhibitors of Methyltransferases
[1] = target: Glycine N-methyltransferase (Homo sapiens) (UniProt Q14749); settings: purified enzyme, MTase-Glo SAH luminescence; measured here: GNMT inhibition; at 40 µM; stronger effect = lower value
In short: (§1)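 Each enzyme was reacted with SAM and its substrate, with compounds tested once at 40 uM; SAH formed was read by MTase-Glo luminescence.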

[2] = target: Histamine N-methyltransferase (Homo sapiens) (UniProt P50135); settings: purified enzyme, MTase-Glo SAH luminescence; measured here: HNMT inhibition; at 40 µM; stronger effect = lower value
In short: as §1

[3] = target: Guanidinoacetate N-methyltransferase (Homo sapiens) (UniProt Q14353); settings: purified enzyme, MTase-Glo SAH luminescence; measured here: GAMT inhibition; at 40 µM; stronger effect = lower value
In short: as §1

[4] = target: Nicotinamide N-methyltransferase (Homo sapiens) (UniProt P40261); settings: purified enzyme, MTase-Glo SAH luminescence; measured here: NNMT inhibition; at 40 µM; stronger effect = lower value
In short: as §1

[5] = target: Phenylethanolamine N-methyltransferase (Homo sapiens) (UniProt P11086); settings: purified enzyme, MTase-Glo SAH luminescence; measured here: PNMT inhibition; at 40 µM; stronger effect = lower value
In short: as §1
On the % scale 0 is the no-effect control and ±100 the full control effect.

| Structure (SMILES) | activity change, negative = inhibition [1] [%] | activity change, negative = inhibition [2] [%] | activity change, negative = inhibition [3] [%] | activity change, negative = inhibition [4] [%] | activity change, negative = inhibition [5] [%] |
| --- | --- | --- | --- | --- | --- |
| CC[C@]1(O)CC2CN(CCc3c([nH]c4ccccc34)[C@@](C(=O)OC)(c3cc4c(cc3OC)N(C=O)[C@H]3[C@@](O)(C(=O)OC)[C@H](OC(C)=O)[C@]5(CC)C=CCN6CC[C@]43[C@@H]65)C2)C1 (some centres not stated) | -8.03 | 4.04 |  |  |  |
| CCOC(=O)c1ccc(NS(=O)(=O)c2ccc3c(c2)n(C)c(=O)n3C)cc1 | -4.89 | 12.9 | 0 | 18.2 | 4 |
| OC[C@H]1O[C@@H](OCCc2ccc(O)cc2)[C@H](O)[C@@H](O)[C@@H]1O | 0.151 | -1.14 | -1.65 | -11.7 | 3.29 |
| C=CCc1ccc(O[C@@H]2O[C@H](CO)[C@@H](O)[C@H](O)[C@H]2O)c(O[C@@H]2O[C@H](CO)[C@@H](O)[C@H](O)[C@H]2O)c1 | 0 | 7.52 | 9.4 | -1.57 | 8.9 |
| CCCn1c(=O)c2ccc(C(=O)NC(C)C)cc2n2c(SCc3ccc(N4CCCC4=O)cc3)nnc12 | -3.81 | -2.08 | 0.312 | -6.56 | -3.48 |
| COc1ccc(CNC(=O)C2(C)Cn3cnc(C(=O)NCc4cccc(F)c4)c3C(=O)N2C2CC2)cc1 (configuration not stated) | -3.39 | 1.12 | 0.226 | -3.09 | -2.49 |
| FC(F)(F)c1ccc(Nc2nc(-c3c(C(F)(F)F)nc4ccccn34)cs2)cc1 | -2.01 | 1.94 | -0.076 | -27.4 | 3.64 |
| CC(C)c1ccc(NC(=O)Cn2c(=O)oc3cc(S(=O)(=O)NCc4ccccc4)ccc32)cc1 | -59.7 | -0.461 | 0.059 | -0.091 | 4.71 |
| COc1cccc(N2CCN(C(=O)CCc3nnc4n(Cc5ccc(F)cc5)c(=O)c5ccccc5n34)CC2)c1 | 1.69 | 10.2 | 1.46 | -0.457 | 2.36 |
| CCOc1ccccc1CN1C(=O)c2cc3sccc3n2CC1(C)C(=O)NC1CCC(C)CC1 (configuration not stated) | -7.57 | -7.11 | 1.84 | -5.43 | -7.87 |
| CC(NC(=O)c1ccc2c(=O)nc3c(-c4cccc(F)c4)n[nH]n3c2c1)c1ccc(F)cc1 (configuration not stated) | -31.7 | -3.41 | -2.7 | -10.6 | -4.56 |
| COc1cccc(C(=O)NCCNc2nc3cc(C)cc(C)c3cc2C#N)c1 | -9.1 | 2.6 | -3.28 | -28.3 | -3.16 |
| CC1CCC(NC(=O)C2(C)Cn3c(ccc3-c3ccco3)C(=O)N2CCc2ccccc2)CC1 (configuration not stated) | -5.09 | 5.84 | 0 | -6.25 | -0.293 |
| Cn1nccc1C(=O)N1CCC2(CCCN(Cc3cccc(F)c3F)C2=O)C1 (configuration not stated) | -4 | -0.933 | -2.68 | -6.89 | -4.7 |
| COc1ccc(NC(=O)c2cc3c(s2)CN(C2CCCC2)C3)c(OC)c1 | -4.02 | -4.38 | -4.95 | -3.27 | -0.661 |
| COC(=O)c1ccc2c(c1)[nH]c1ncnc(NCCCN3CCCCC3)c12 | -0.128 | -22.5 | 4.51 | -31.3 | -7.74 |
| CC1OC(OC2C(OC3C(O[C@H]4CC[C@@]5(C)C(CC[C@]6(C)C5C(=O)C=C5C7CC(C)(C)CC(O)[C@]7(C)CC[C@]56C)C4(C)C)OC(C(=O)O)C(O)C3O)OCC(O)C2O)C(O)C(O)C1O (some centres not stated) | -1.33 | -3.06 | -10.5 | -18.9 | 0.347 |
| CCCCN1C(=O)c2cc(C(=O)N3CCN(c4ccc(F)cc4)CC3)nn2CC1(C)C(=O)NC1CCCC1 (configuration not stated) | 1.65 | 4.14 | 0 | 0.58 | 1.68 |
| Cc1cc(C(=O)N2CCC3(CC2)CC(N2CCN(c4ccccn4)CC2)CCO3)n[nH]1 (configuration not stated) | -0.943 | -2.11 | -1.05 | -0.809 | -2.35 |
| O=C(NCCc1ccc(Cl)cc1)C1CCc2nnc(C3CCN([S+](=O)([O-])c4ccccc4)CC3)n21 (configuration not stated) | -8.89 | -8.1 | -3.62 | -14.3 | -12.3 |
| Cc1nc(-c2c3n(c(=O)n(Cc4ccccc4C(F)(F)F)c2=O)CCCCC3)no1 | -2.89 | -1.33 | -3.98 | -11.8 | -7.76 |
| CCC(C)NC(=O)c1ccc2c(=O)n(C)c3nnc(SCC(=O)Nc4ccc(Cl)cc4)n3c2c1 (configuration not stated) | 0.954 | -2.25 | 2.05 | -1.93 | -0.048 |
| COCCNC(=O)C1c2ccccc2C(=O)N(Cc2ccco2)C12CCCCC2 (configuration not stated) | -5.5 | -4.93 | -11.4 | -19.1 | -15.1 |
| CCOC(=O)C[C@@H]1C[C@@H](C(C)C)[C@H](CNC(=O)c2cccnc2)C=C1C | -5.41 | -0.983 | -3.93 | -14 | -10.1 |
| CCCn1c(=O)c2ccc(Cl)cc2n2c(=O)n(Cc3ccc(F)cc3Cl)nc12 | 2.7 | 7.75 | 0 | 9.51 | 3.44 |
| O=C1NC2(Cc3ccccc31)CN(C(=O)c1ccccc1)C2 | -4.67 | -1.32 | -1.92 | -10.2 | -3.85 |
| COc1ccc(CNC(=O)C2(C)Cn3cnc(C(=O)NCc4cccc(C)c4)c3C(=O)N2C2CC2)cc1 (configuration not stated) | -7.99 | -3.25 | 6.65 | -5.47 | 0.264 |
| COCCCn1c(C)cnc1CC1CCN(C(=O)C2CCCCC2)CC1 | -3.84 | -11.8 | -4.47 | -10.6 | 0.155 |
| Cc1ccc(CNC(=O)N2CCc3nnc(C4CC4)n3CC2)cc1 | -1.21 | 0.295 | 0.314 | -1.35 | -4.23 |
